Our source for the GI50 and TGI values is PubChem BioAssay (NCI).

The test system of the assay is NCI-H322M lung. Description: DTP human tumour cell line panel, 48 h.

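96-well plates; 48 h exposure; 5 concentrations. Endpoints by linear interpolation between flanking doses. Not reached: highest tested concentration assigned. GI50: concentration for 50% inhibition of growth. TGI: concentration producing complete growth inhibition.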

`Cc1ccccc1[C@H]1C(C(=O)c2ccc(Cl)cc2)C2(N[C@@H]1c1ccccc1)C(=O)Nc1ccccc12` (stereo not given in full): the GI50 (as a rule, the concentration that inhibits growth by half) is 6.23 µM and the TGI (commonly the concentration at which net growth stops) was found to be 17.8 µM.
For `O=c1cc(-c2ccccc2)oc2cc(OCCCC[P+](c3ccccc3)(c3ccccc3)c3ccccc3)cc(O)c12`, in that order: 1.37 µM and 3.66 µM.
For `C=C1CC[C@@H]2[C@]3(C)COC(c4cn[nH]c4-c4ccc(C)cc4)O[C@@H]3CC[C@@]2(C)[C@@H]1C/C=C1/C(=O)OCC1O` (stereo not given in full), in that order: 32.5 µM and greater than 100 µM.
For `Cc1nc(Nc2nc(C)c3ccc(OCCN4CCOCC4)cc3n2)[nH]c(=O)c1C`, in that order: 3.17 µM and 17 µM.
Consider `CC1=C2C(=C[C@@](C)(COCOCCCl)[C@@H]2O)C(=O)[C@](C)(O)C12CC2`, for which the GI50 is 0.789 µM and the TGI was 4.33 µM.
